Assay results as given in the supplement of paper PMC8728848.
The other results are listed elsewhere or left out.

Experiments:
Experiment in all cases: glycan array binding signal (z-score within array); higher = stronger binding
Settings in all cases: glycan notation: IUPAC condensed, linker removed
[1] = molecular target: Fuc(a1-2)[GalNAc(a1-3)]Gal(b1-3)GlcNAc(b1-3)GalNAc
Method in brief: (§1)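 Columns mapping to the same glycan were averaged after glycan names were converted to IUPAC-condensed notation. The data come from 3228 arrays in the Consortium for Functional Glycomics database, limited to those with an available protein sequence. Binding is reported as a within-array Z-score averaged across arrays of one protein sequence and across linkers.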

[2] = molecular target: Fuc(a1-2)[GalNAc(a1-3)]Gal(b1-3)GlcNAc(b1-6)GalNAc
Method in brief: as §1

[3] = molecular target: Fuc(a1-2)[GalNAc(a1-3)]Gal(b1-4)Glc
Method in brief: as §1

[4] = molecular target: Fuc(a1-2)[GalNAc(a1-3)]Gal(b1-4)GlcNAc
Method in brief: as §1

[5] = molecular target: Fuc(a1-2)[GalNAc(a1-3)]Gal(b1-4)GlcNAc(b1-2)Man
Method in brief: as §1

[6] = molecular target: Fuc(a1-2)[GalNAc(a1-3)]Gal(b1-4)GlcNAc(b1-2)Man(a1-3)[Fuc(a1-2)[GalNAc(a1-3)]Gal(b1-4)GlcNAc(b1-2)Man(a1-6)]Man(b1-4)GlcNAc(b1-4)GlcNAc
Method in brief: as §1

[7] = molecular target: Fuc(a1-2)[GalNAc(a1-3)]Gal(b1-4)GlcNAc(b1-2)Man(a1-3)[Fuc(a1-2)[GalNAc(a1-3)]Gal(b1-4)GlcNAc(b1-2)Man(a1-6)]Man(b1-4)GlcNAc(b1-4)[Fuc(a1-6)]GlcNAc
Method in brief: as §1

[8] = molecular target: Fuc(a1-2)[GalNAc(a1-3)]Gal(b1-4)GlcNAc(b1-3)Gal(b1-4)GlcNAc
Method in brief: as §1

[9] = molecular target: Fuc(a1-2)[GalNAc(a1-3)]Gal(b1-4)GlcNAc(b1-3)Gal(b1-4)GlcNAc(b1-3)Gal(b1-4)GlcNAc
Method in brief: as §1

[10] = molecular target: Fuc(a1-2)[GalNAc(a1-3)]Gal(b1-4)GlcNAc(b1-3)GalNAc
Method in brief: as §1

[11] = molecular target: Fuc(a1-2)[GalNAc(a1-3)]Gal(b1-4)GlcNAc(b1-3)[Fuc(a1-2)[GalNAc(a1-3)]Gal(b1-4)GlcNAc(b1-6)]GalNAc
Method in brief: as §1

[12] = molecular target: Fuc(a1-2)[GalNAc(a1-3)]Gal(b1-4)GlcNAc(b1-6)GalNAc
Method in brief: as §1

[13] = molecular target: Fuc(a1-2)[GalNAc(a1-3)]Gal(b1-4)[Fuc(a1-3)]GlcNAc
Method in brief: as §1

[14] = molecular target: Fuc(a1-2)[GalNAc(a1-3)]Gal(b1-4)[Fuc(a1-3)]GlcNAc(b1-3)GalNAc
Method in brief: as §1

[15] = molecular target: Fuc(a1-2)[GalNAc(a1-4)]Gal(b1-4)GlcNAc
Method in brief: as §1

[16] = molecular target: Fuc(a1-2)[GalNAc(b1-3)]Gal
Method in brief: as §1

Fuc(a1-3)GlcNAc = molecular target: Fuc(a1-3)GlcNAc
Method in brief: as §1

[17] = molecular target: Fuc(a1-3)[Gal(b1-4)]Glc6S
Method in brief: as §1

[18] = molecular target: Fuc(a1-3)[Gal(b1-4)]GlcNAc
Method in brief: as §1

[19] = molecular target: Fuc(a1-3)[Gal(b1-4)]GlcNAc(b1-2)Man
Method in brief: as §1

[20] = molecular target: Fuc(a1-3)[Gal(b1-4)]GlcNAc(b1-2)Man(a1-3)[Fuc(a1-3)[Gal(b1-4)]GlcNAc(b1-2)Man(a1-6)]Man(b1-4)GlcNAc(b1-4)GlcNAc
Method in brief: as §1

[21] = molecular target: Fuc(a1-3)[Gal(b1-4)]GlcNAc(b1-2)Man(a1-3)[Fuc(a1-3)[Gal(b1-4)]GlcNAc(b1-2)Man(a1-6)]Man(b1-4)GlcNAc(b1-4)[Fuc(a1-6)]GlcNAc
Method in brief: as §1

[22] = molecular target: Fuc(a1-3)[Gal(b1-4)]GlcNAc(b1-3)Gal(b1-3)[Fuc(a1-4)]GlcNAc
Method in brief: as §1

[23] = molecular target: Fuc(a1-3)[Gal(b1-4)]GlcNAc(b1-3)Gal(b1-4)[Fuc(a1-3)]GlcNAc
Method in brief: as §1

[24] = molecular target: Fuc(a1-3)[Gal(b1-4)]GlcNAc(b1-3)Gal(b1-4)[Fuc(a1-3)]GlcNAc(b1-3)Gal(b1-4)[Fuc(a1-3)]GlcNAc
Method in brief: as §1

[25] = molecular target: Fuc(a1-3)[Gal(b1-4)]GlcNAc(b1-3)GalNAc
Method in brief: as §1

[26] = molecular target: Fuc(a1-3)[Gal(b1-4)]GlcNAc(b1-6)GalNAc
Method in brief: as §1

[27] = molecular target: Fuc(a1-3)[Gal(b1-4)]GlcNAc(b1-6)[Gal(b1-3)GlcNAc(b1-3)]Gal(b1-4)Glc
Method in brief: as §1

[28] = molecular target: Fuc(a1-3)[Gal(b1-4)]GlcNAc6S
Method in brief: as §1

[29] = molecular target: Fuc(a1-3)[Gal3S(b1-4)]Glc
Method in brief: as §1

[30] = molecular target: Fuc(a1-3)[Gal3S(b1-4)]GlcNAc
Method in brief: as §1

[31] = molecular target: Fuc(a1-3)[Gal3S(b1-4)]GlcNAc6S
Method in brief: as §1

[32] = molecular target: Fuc(a1-3)[GalNAc(b1-4)]GlcNAc
Method in brief: as §1

[33] = molecular target: Fuc(a1-3)[GalNAc(b1-4)]GlcNAc6S
Method in brief: as §1

Fuc(a1-4)GlcNAc = molecular target: Fuc(a1-4)GlcNAc
Method in brief: as §1

Fuc(b1-3)GlcNAc = molecular target: Fuc(b1-3)GlcNAc
Method in brief: as §1

Gal(a1-2)Gal = molecular target: Gal(a1-2)Gal
Method in brief: as §1

B1: PVL (Psathyrella velutina), Q309D1_9AGAR (protein)
chain: MSVVVISQALPVPTRIPGVADLVGFGNGGVYIIRNSLLIQVVKVINNFGYDAGGWRVEKHVRLLADTTGDNQPDVVGFGENGVWISTNNGNNTFVDPPKMVLANFAYAAGGWRVEKHIRFMADLRKTGRADIVGFGDGGIYISRNNGGGQFAPAQLALNNFGYAQGWRLDRHLRFLADVTGDGLLDVVGFGENQVYIARNSGNGTFQPAQAVVNNFCIGAGGWTISAHPRVVADLTGDRKADILGFGVAGVYTSLNNGNGTFGAVNLVLKDFGVNSGWRVEKHVRCVSSLTNKKVGDIIGFGDAGVYVALNNGNGTFGPVKRVIDNFGYNQGWRVDKHPRFVVDLTGDGCADIVGFGENSVWACMNKGDGTFGPIMKLIDDMTVSKGWTLQKTVRYAANLYL
Which results are given for B1?
glycan array binding signal (z-score) [1]: -0.353; glycan array binding signal (z-score) [2]: -0.372; glycan array binding signal (z-score) [3]: -0.766; glycan array binding signal (z-score) [4]: -0.408; glycan array binding signal (z-score) [5]: -0.357; glycan array binding signal (z-score) [6]: -0.355; glycan array binding signal (z-score) [7]: -0.346; glycan array binding signal (z-score) [8]: -0.246; glycan array binding signal (z-score) [9]: -0.017; glycan array binding signal (z-score) [10]: -0.364; glycan array binding signal (z-score) [11]: -0.153; glycan array binding signal (z-score) [12]: -0.392; glycan array binding signal (z-score) [13]: -0.612; glycan array binding signal (z-score) [14]: -0.364; glycan array binding signal (z-score) [15]: -0.335; glycan array binding signal (z-score) [16]: -0.353; glycan array binding signal (z-score) (Fuc(a1-3)GlcNAc): -0.371; glycan array binding signal (z-score) [17]: -0.352; glycan array binding signal (z-score) [18]: -0.361; glycan array binding signal (z-score) [19]: -0.412; glycan array binding signal (z-score) [20]: -0.368; glycan array binding signal (z-score) [21]: -0.366; glycan array binding signal (z-score) [22]: -0.366; glycan array binding signal (z-score) [23]: -0.256; glycan array binding signal (z-score) [24]: -0.357; glycan array binding signal (z-score) [25]: -0.362; glycan array binding signal (z-score) [26]: -0.365; glycan array binding signal (z-score) [27]: -0.344; glycan array binding signal (z-score) [28]: -0.357; glycan array binding signal (z-score) [29]: -0.398; glycan array binding signal (z-score) [30]: -0.357; glycan array binding signal (z-score) [31]: -0.364; glycan array binding signal (z-score) [32]: -0.386; glycan array binding signal (z-score) [33]: -0.367; glycan array binding signal (z-score) (Fuc(a1-4)GlcNAc): -0.38; glycan array binding signal (z-score) (Fuc(b1-3)GlcNAc): -0.418; glycan array binding signal (z-score) (Gal(a1-2)Gal): -0.387
